# Data as given in the supplement of paper PMC3334620.
# Whole data set: some 33,000 sequences, median “E-score (-0.5 to 0.5)” near -0.056, cut for the highest 2% near 0.38. This is one part of the list.
# Target: Stb4 (UniProt P50104)
# Assay: PBM E-score (8-mer binding enrichment) (E-score (-0.5 to 0.5)); higher = stronger / more preferred TF binding; most listed sequences are background and not binding sites
# Details: protein concentration: 200 nM; construct: GST-DNA-binding domain
# Summary of the method: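 Yeast transcription factors, full-length or as DNA-binding domains, were expressed with a GST tag using PURExpress in vitro transcription/translation. At about 100-200 nM they were applied to universal all-10-mer Agilent arrays, double-stranded by primer extension on fresh or once-stripped slides. Fluorescent anti-GST detected bound protein, and masliner normalised the scans. E-scores for ungapped eight-base words, pooled with reverse complements, came from the Universal PBM Analysis Suite.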
row,Sequence,PBM E-score
1,ACTCAACG,-0.0775
2,ACGGCGCT,-0.146
3,ACTTAAGG,-0.0202
4,ATAGGTGG,-0.146
5,ACTTTTGG,-0.0657
6,AAACCGTG,-0.0408
7,CCGTTACA,0.205
8,CCTGCAGC,-0.21
9,GCCGCATA,0.104
10,TATCCATA,-0.0184
11,TGCCAACA,-0.079
12,AGTTAGTG,-0.0476
13,AAATAGAT,0.0389
14,TATCGGGA,0.361
15,ATGTCCTA,-0.191
16,ACATCCCT,0.0026
17,TGTAGGAA,-0.124
18,AGGTTGAA,-0.0295
19,CACGTCCC,-0.143
20,AAGAGCTG,-0.153
21,AAATACCG,0.286
22,AGGCCCAA,-0.0413
23,TTATAGAA,-0.304
24,CGCCACAG,-0.0946
25,ATTGAAAG,-0.0669

row,Sequence,PBM E-score
1,CCGAAATA,0.401
2,CCTGTTTC,-0.108
3,AGCAGTCA,-0.116
4,CGATTCCG,0.37
5,AGCTTACA,-0.0787
6,CTCGTAGA,-0.246
7,GGGAGGAA,0.163
8,TAGCGGCA,0.0954
9,AAACCAGC,0.0486
10,GAAGTGGA,0.0118
11,ACCGGCGA,0.119
12,ACTGTGAT,-0.0464
13,CTCTATAA,-0.0492
14,CATATAGG,-0.153
15,TACTGACA,-0.119
16,ATAAGCAC,-0.0522
17,AAACTATC,-0.0321
18,ACATCATC,-0.0953
19,CTGGGTGC,-0.151
20,GGCCAATA,0.133
21,AACGACGA,-0.0529
22,GAGAGCTA,-0.101
23,GAAGATGA,-0.157
24,ACCGTACA,0.00999
25,GTACGCCA,-0.109

row,Sequence,PBM E-score
1,ACTAAACG,-0.105
2,CTGACTAC,-0.282
3,GACCTCCA,0.0736
4,TCCGGCGA,0.313
5,AACGCGGC,0.0881
6,CCGGACAA,0.186
7,GGAGTATA,0.235
8,CGGTCTTC,0.156
9,GTGATCGA,-0.0698
10,CCCATGAG,-0.138
11,ATGAATGA,-0.168
12,GGAAAGCC,0.169
13,ATTGGCCA,-0.209
14,TGGTGCAA,-0.312
15,GTCCCTTA,-0.141
16,ATTAGCAA,-0.12
17,ACCGCCGC,0.0939
18,AAAGGTTA,-0.192
19,ACCGCGTC,-0.0243
20,TATCGTAA,-0.0706
21,GGTGATAC,-0.125
22,AAAAGCAG,-0.144
23,CACCGCAC,-0.102
24,GCATGGCA,0.0483
25,ACGGGTAA,0.328

row,Sequence,PBM E-score
1,CAGCTTGG,-0.142
2,GCGAAACC,0.0204
3,GCGCCCAA,-0.0252
4,TCTATAGA,-0.159
5,AAAGGAAC,-0.0801
6,AGGCCCAT,-0.174
7,GAGGCCCC,0.0227
8,CTAACCTC,0.0386
9,CCGAGAGC,0.388
10,AGTCTCAC,-0.0748
11,CATGAACG,-0.179
12,GGGGGCGA,-0.167
13,AATCGATT,-0.24
14,CAGCCACA,-0.165
15,CCCAAGCC,0.00952
16,CTGGCACC,-0.123
17,CTGCGTAC,-0.144
18,ACACGTGC,-0.0793
19,CAACGGTA,-0.0237
20,ATAAGGAC,-0.0864
21,ACGGGAGC,0.147
22,CACAGCAG,-0.204
23,TAGGTCCA,-0.182
24,CCAGATGA,-0.15
25,AATACGTA,-0.162

row,Sequence,PBM E-score
1,ATTATCAC,0.0126
2,TATCTTAA,-0.0139
3,GCCGGTCA,0.0917
4,GGTGTTAA,0.0998
5,ACCATTGC,0.0356
6,GCGAAACA,-0.137
7,CGAGTTAC,0.14
8,AGAGGTTC,0.0565
9,CTCACGAG,-0.16
10,CTCAATTC,-0.0727
11,ATCATGCA,-0.198
12,GTGTGTAA,-0.0719
13,ACGATCGT,0.17
14,AGAACCAC,-0.152
15,GGCCTGTA,-0.0127
16,CCTCTTGA,-0.235
17,GTGGGGAA,-0.0909
18,AAGGCCAT,-0.0904
19,CTGCGCAC,-0.0303
20,TATCAAAA,-0.00412
21,GATCACAA,0.0092
22,ATATACAA,-0.0112
23,CTCGTCAC,0.0272
24,ACTACATC,-0.103
25,GAAACGGC,0.0806

row,Sequence,PBM E-score
1,CAACTTTA,-0.143
2,GCCCGAGA,0.352
3,CCAAGCAC,-0.219
4,AAATAATG,-0.0388
5,CCGAATAC,0.425
6,GGACGAAC,0.0688
7,GCTAAGCA,-0.217
8,AACGTAGT,-0.206
9,ATATGGTA,-0.127
10,CACATTGA,-0.0562
11,CGTTGTAA,-0.0705
12,GTAAGATA,0.0103
13,ACCCTGGC,-0.138
14,AAGCGCTT,-0.00971
15,CCGTATAC,0.00392
16,CCGAGACA,0.372
17,CATGGCCC,0.13
18,ATCCGGTG,0.397
19,ACTATTCA,-0.13
20,CGGTGCAC,0.0103
21,CTATAGCC,-0.0273
22,TAGGTTAA,-0.0443
23,CAACCGCC,0.081
24,CTCCAGAC,-0.128
25,GGGACAAA,0.186

row,Sequence,PBM E-score
1,CGGTTCCC,0.217
2,CTTATGTC,-0.0122
3,TCCGTTAA,0.259
4,TGATAGCA,-0.132
5,CTGTCCGC,-0.105
6,AAATGATA,0.112
7,ATGTAAAT,-0.136
8,GACAACCC,0.135
9,GACTTTCA,-0.0727
10,AGCGGATG,0.275
11,ATACACGG,0.0939
12,CCGAAGGA,0.36
13,ATTCAGAA,-0.241
14,AGAGCTAC,-0.19
15,CGGCACTC,0.137
16,CACGATCC,0.276
17,AGGGGCCC,-0.0968
18,GCACAAGC,-0.11
19,CTAATTAG,-0.155
20,CAAAGCCG,0.191
21,GGGAATCA,0.0543
22,TAAAGGCA,-0.124
